# Reference: the supplement of paper PMC3334620
# The full ranking holds about 33,000 sequences; the median of “E-score (-0.5 to 0.5)” is about -0.013, and the highest 2% start at about 0.3. This is one part of the list.
# Molecular target: T1, Msn1 (UniProt P22148)
# T1 sequence: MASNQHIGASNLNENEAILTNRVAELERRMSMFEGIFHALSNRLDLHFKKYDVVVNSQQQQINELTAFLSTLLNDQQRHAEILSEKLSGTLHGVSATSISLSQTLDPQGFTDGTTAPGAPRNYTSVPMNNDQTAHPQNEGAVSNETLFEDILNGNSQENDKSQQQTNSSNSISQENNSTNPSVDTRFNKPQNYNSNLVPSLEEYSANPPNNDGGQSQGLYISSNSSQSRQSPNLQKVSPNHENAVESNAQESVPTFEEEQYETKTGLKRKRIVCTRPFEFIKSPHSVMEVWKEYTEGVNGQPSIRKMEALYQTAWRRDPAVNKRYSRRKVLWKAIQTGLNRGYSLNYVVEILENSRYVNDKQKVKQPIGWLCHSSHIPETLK
# Assay: PBM E-score (8-mer binding enrichment) (E-score (-0.5 to 0.5)); higher = stronger / more preferred TF binding; most listed sequences are background and not binding sites
# Conditions: protein concentration: 200 nM; construct: GST-full length
# Procedure, shortened: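 For each ungapped eight-base word taken together with its reverse complement, the Universal PBM Analysis Suite assigned an E-score. Binding data came from GST-tagged yeast transcription factors, applied at about 100-200 nM, on universal all-10-mer Agilent arrays made double-stranded by primer extension. Fluorescent anti-GST marked bound protein, and scans were normalised with masliner.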
row,Sequence,PBM E-score
1,CGACACTC,0.136
2,CCTACTCC,-0.174
3,GACCCGCA,-0.114
4,GCGCTCCA,-0.199
5,ACGTACTA,0.0226
6,CGATTCTC,0.103
7,GAGGGGAA,-0.167
8,AGACCCCT,-0.238
9,ATCAATGA,0.118
10,GGCCCACC,-0.347
11,GGACTTGA,-0.00222
12,CGGACGAA,0.337
13,ACGGGCCC,-0.132
14,ATTAAACC,0.0943
15,ATTCTTGG,0.135
16,GCGTATAA,-0.029
17,GTAGACAA,0.309
18,CATATTCG,0.116
19,AGTTTGTC,0.446
20,TGAACCAA,0.0807
21,AAATCAAA,0.171
22,ATCGCTAC,-0.0607
23,ACGGTATG,-0.0824
24,AGTTACCG,-0.00336
25,ATCTATAG,0.0639

row,Sequence,PBM E-score
1,ACATCAAG,0.051
2,CTGATCCA,0.015
3,CGCGCTCC,-0.0391
4,GAGTGCTA,-0.139
5,AACTCCGG,0.23
6,GCGGGTCC,-0.19
7,GCTATTCC,-0.183
8,CGTCCTTA,0.279
9,AAAGAGCG,0.0369
10,AACAAGCC,0.0265
11,GCCCCACA,-0.0903
12,ACATCTGG,0.136
13,GAAGGAGC,-0.417
14,GAATTGAC,-0.0196
15,CCAGGGCG,-0.139
16,ATGCCTTG,-0.0693
17,CTCCACGA,-0.0161
18,AATATAGG,0.167
19,CGTGGGAC,0.186
20,CTGGCTCA,0.0792
21,TCGAACAA,0.111
22,AAGTCCCA,0.303
23,AATATTCA,0.107
24,CAACAGTA,-0.0242
25,CTGAGTGA,0.103

row,Sequence,PBM E-score
1,AGTAGATC,-0.0769
2,CACTGCTG,-0.229
3,CATTTGAG,0.214
4,ATTCCCCG,-0.012
5,AATTTCAT,0.186
6,CGGGACCA,-0.152
7,GGGGCTCA,-0.343
8,AAAAAGCG,0.0919
9,ACCGACAA,0.268
10,GCTGTCGA,-0.143
11,CCCTATCC,-0.354
12,CACTTACA,0.156
13,AAAGAAAT,0.0721
14,GTGTACTA,0.289
15,GTCGGAAA,0.213
16,GTAAGGTA,0.107
17,ATTCTACG,-0.0164
18,GCGCCGCC,0.0408
19,AAGACCTA,0.018
20,ACAGCGCC,-0.0779
21,CTCGGGTA,0.00177
22,ACAGGTCA,-0.0415
23,AATACGGG,-0.0838
24,CGCCCGTC,-0.0404
25,ATGAGCCG,-0.156

row,Sequence,PBM E-score
1,GAGTTCCC,0.0462
2,AGAGTATA,-0.24
3,ACCTTCTG,-0.0438
4,CAAGCTTG,-0.169
5,ATGCCCTG,-0.0109
6,CAGTTCTC,-0.083
7,GATGCGTA,0.00061
8,AGAGGAAT,-0.14
9,CTATCTCA,-0.0312
10,AGACTTTC,0.224
11,AAACCCCC,-0.295
12,ACATAATC,0.142
13,AATCTTAT,0.11
14,AACATGTA,0.186
15,TCTACAAA,0.0205
16,ACTTGAGA,-0.0406
17,AATGTAGT,-0.0349
18,AGGTGGCG,-0.256
19,ACCTTGGG,0.0466
20,TGTGTGAA,0.00834
21,ATCAATTA,0.127
22,AGCAATAC,0.0841
23,ACTTTCCG,0.0989
24,CAGTTCGG,0.115
25,ATGTGTCG,0.194

row,Sequence,PBM E-score
1,CACCTCTC,-0.244
2,CTAAGATA,0.0435
3,CGTGAGCC,-0.189
4,GAGCCGGC,-0.123
5,TCATGAAA,-0.0518
6,AGTTTATG,0.0578
7,CATTGGTC,-0.0452
8,CACAAATC,0.0687
9,GGGGTGGA,-0.263
10,AACGAAAG,0.0418
11,AAAGTTCC,-0.0603
12,GTTTTCGA,-0.179
13,ATTAAGAA,0.106
14,GGGTACCA,-0.0811
15,ATCGCCTA,-0.022
16,ACAGAGTA,0.0217
17,ATCCAGAA,0.0976
18,GAGAAATA,0.161
19,AATAAGGC,-0.0798
20,ATTCTCCC,-0.0691
21,GGACCTCC,-0.186
22,CAGTCTGA,-0.13
23,GCATTAGC,-0.0978
24,CGGTCGAA,0.0627
25,CTTTGAAC,-0.0499

row,Sequence,PBM E-score
1,AAGTCAAG,-0.118
2,ATGTTCTG,0.018
3,CCATTCCG,0.0235
4,TCAAACAA,0.0792
5,AGCGCAAC,0.00252
6,CACTTCAC,0.00039
7,CGGATTGC,0.0283
8,AAGTAGGT,-0.0559
9,GTGTAAAA,0.0823
10,ATGCGGGA,0.0935
11,CTCCTATC,-0.229
12,ATTTTAAA,0.156
13,GGTCTATA,-0.138
14,GTTGGGCA,-0.0271
15,CTTGCCAC,-0.171
16,AGTGCTTA,-0.0914
17,AGTGGGCC,-0.258
18,GGTATTGA,0.154
19,AATACACT,0.225
20,GCCTTTAC,-0.0137
21,AAATCGTT,0.167
22,CCAGGCAG,-0.0643
23,CCCTGCCA,-0.173
24,ACAAATAG,0.322
25,CCCGTTTA,0.193

row,Sequence,PBM E-score
1,CACCCCAA,-0.0518
2,GACTATAC,0.0248
3,ACGTTTTA,0.177
4,TACCTTAA,-0.0222
5,CAGTCAGA,-0.00092
6,CCGTATAA,0.144
7,CCGGGGGC,-0.388
8,ACAGAGCT,-0.0882
9,CCGAGGAA,0.0278
10,ACGTGTCT,0.16
11,CATGTAAG,0.109
12,CTAAGGCC,-0.0255
13,AATCCACT,0.0791
14,GCCTCGCA,-0.101
15,CACAAGTA,-0.0518
16,AGAAGCAA,0.0568
17,AACCGCTC,-0.0909
18,AGAGATCG,-0.0703
19,AGGATTGG,-0.0223
20,CCCAACCG,-0.165
21,ACAATACG,0.0932
22,ACACACTG,-0.00688
